B1: GPR68, Q15743 (parent)
chain: MGNITADNSSMSCTIDHTIHQTLAPVVYVTVLVVGFPANCLSLYFGYLQIKARNELGVYLCNLTVADLFYICSLPFWLQYVLQHDNWSHGDLSCQVCGILLYENIYISVGFLCCISVDRYLAVAHPFRFHQFRTLKAAVGVSVVIWAKELLTSIYFLMHEEVIEDENQHRVCFEHYPIQAWQRAINYYRFLVGFLFPICLLLASYQGILRAVRRSHGTQKSRKDQIQRLVLSTVVIFLACFLPYHVLLLVRSVWEASCDFAKGVFNAYHFSLLLTSFNCVADPVLYCFVSETTHRDLARLRGACLAFLTCSRTGRAREAYPLGAPEASGKSGAQGEEPELLTKLHPAFQTPNSPGSGGFPTGRLA

Variants of B1 are the subject of series [1]. As to the kind of experiment: cAMP reporter score (Enrich2 score, wild type = 0); higher = more signal; HEK293T, FACS bins.
In series [2] the parent is B1. As to the kind of experiment: surface expression score (Enrich2 score, wild type = 0); higher = more signal; HEK293T, FACS bins.

Drawing on the GPR68 mutational scans of Howard et al. (2025), this text covers cAMP reporter score and surface expression score for 32 variants.

Scores with a large standard error are left out. Two further conditions of the source, in which the scores hardly spread, are not listed. In variant names, del marks residues removed and ins residues inserted between the two positions. For some assays here: The data file names ogerin without a concentration.

For H125Y, the cAMP reporter score in series [1] (pH 5.5) is -0.406; in series [1] (pH 6), -0.313; in series [1] (pH 6, modulator: ogerin) it was -0.469; in series [1] (pH 6.5, modulator: ogerin) it was -0.523. Further, in series [2], the surface expression score was -0.538.
With H125W, the cAMP reporter score in series [1] (pH 5.5) was -0.776; in series [1] (pH 6), -1.12; in series [1] (pH 6, modulator: ogerin), -0.99; in series [1] (pH 6.5, modulator: ogerin), -1.53. The surface expression score in series [2] was -1.06.
As to L112del, the cAMP reporter score is -1.8 in series [1] (pH 5.5); -1.06 in series [1] (pH 6); -1.6 in series [1] (pH 6, modulator: ogerin); -1.11 in series [1] (pH 6.5, modulator: ogerin). Also, the surface expression score in series [2] was -2.08.
With V109_F111del, the cAMP reporter score in series [1] (pH 5.5) is -1.23; in series [1] (pH 6), -1.03; in series [1] (pH 6.5, modulator: ogerin) it was -1.68. Also, the surface expression score in series [2] is -2.54.
On to Y106del, for which the cAMP reporter score in series [1] (pH 5.5) is -2.59; in series [1] (pH 6), -1; in series [1] (pH 6, modulator: ogerin), -1.31; in series [1] (pH 6.5, modulator: ogerin), -1.17. Further, the surface expression score in series [2] is -2.09.
The like results for I107_S108del were, in that order, -0.549, -0.493, -0.839, -1.04 and -2.66.
In the same order, the values of F127T are -0.614, -0.906, -1.48, -0.844 and 2.11.
For the variant F127H, the cAMP reporter score in series [1] (pH 5.5) is -0.581; in series [1] (pH 6, modulator: ogerin) it was -1.14; in series [1] (pH 6.5, modulator: ogerin) it was -1.76. In addition, the surface expression score in series [2] came to 1.61.
On to F127S, for which the cAMP reporter score in series [1] (pH 5.5) was -1.71; in series [1] (pH 6) it was -0.568; in series [1] (pH 6.5, modulator: ogerin), -0.936. In series [2], the surface expression score was determined as 1.
Take F127P: the cAMP reporter score is -1.3 in series [1] (pH 5.5); -1.03 in series [1] (pH 6); -1.28 in series [1] (pH 6, modulator: ogerin); -0.607 in series [1] (pH 6.5, modulator: ogerin). In addition, in series [2], the surface expression score is -1.38.
As for F127C, the cAMP reporter score in series [1] (pH 5.5) is 0.982; in series [1] (pH 6) it was -0.828. Moreover, the surface expression score in series [2] was -0.128.
As to F127W, the cAMP reporter score in series [1] (pH 5.5) is -0.31; in series [1] (pH 6) it was -0.604; in series [1] (pH 6, modulator: ogerin), -0.145; in series [1] (pH 6.5, modulator: ogerin), -1.46.
As for F127E, the cAMP reporter score in series [1] (pH 5.5) was -0.174; in series [1] (pH 6) it was -1.47; in series [1] (pH 6, modulator: ogerin), -1.38; in series [1] (pH 6.5, modulator: ogerin), -0.48. For the same variant, the surface expression score in series [2] amounted to 0.832.
With F127N, the cAMP reporter score in series [1] (pH 5.5) was -0.718; in series [1] (pH 6), -0.702; in series [1] (pH 6, modulator: ogerin) it was -1.53; in series [1] (pH 6.5, modulator: ogerin) it was -1.09. Besides, the surface expression score in series [2] is 2.03.
With F127R, the cAMP reporter score in series [1] (pH 5.5) was -1.24; in series [1] (pH 6) it was -1.08; in series [1] (pH 6, modulator: ogerin) it was -1.64; in series [1] (pH 6.5, modulator: ogerin) it was -1.62. The surface expression score in series [2] turned out to be 1.11.
As for F127I, the cAMP reporter score in series [1] (pH 5.5) was -0.698; in series [1] (pH 6) it was -0.517; in series [1] (pH 6, modulator: ogerin), -1.1; in series [1] (pH 6.5, modulator: ogerin) it was -0.271. Moreover, in series [2], the surface expression score was -0.816.
In the case of F127G, the cAMP reporter score in series [1] (pH 5.5) was -1.66; in series [1] (pH 6.5, modulator: ogerin), -1.29. In series [2], the surface expression score was found to be 1.82.
Consider F127Y, for which the cAMP reporter score in series [1] (pH 5.5) is -0.552; in series [1] (pH 6) it was -1.12; in series [1] (pH 6, modulator: ogerin) it was -1.12; in series [1] (pH 6.5, modulator: ogerin), -2.03. Also, the surface expression score in series [2] is -0.388.
Consider F127L, for which the cAMP reporter score is 0.042 in series [1] (pH 5.5); -1.79 in series [1] (pH 6); 1.09 in series [1] (pH 6, modulator: ogerin); -0.019 in series [1] (pH 6.5, modulator: ogerin). In addition, the surface expression score in series [2] came to 0.824.
In the same order, the values of F127K are -1.62, -0.839, -1.42, -0.779 and 1.32.
Consider F127V, for which the cAMP reporter score in series [1] (pH 5.5) is 0.011; in series [1] (pH 6), -0.811; in series [1] (pH 6, modulator: ogerin) it was -0.729; in series [1] (pH 6.5, modulator: ogerin) it was -1.45. For the same variant, in series [2], the surface expression score was -0.263.
As to F127A, the cAMP reporter score in series [1] (pH 5.5) is -0.914; in series [1] (pH 6), -0.361; in series [1] (pH 6, modulator: ogerin), 0.366; in series [1] (pH 6.5, modulator: ogerin), 1.25.
For the variant F127M, the cAMP reporter score in series [1] (pH 5.5) was 0.122; in series [1] (pH 6) it was -0.433; in series [1] (pH 6, modulator: ogerin), 0.575. Moreover, the surface expression score in series [2] was found to be 0.865.
For Y106F, the cAMP reporter score is -1.24 in series [1] (pH 5.5); -1.19 in series [1] (pH 6); -1.44 in series [1] (pH 6, modulator: ogerin); -1.47 in series [1] (pH 6.5, modulator: ogerin). Further, in series [2], the surface expression score is -2.44.
For Y106Q, the cAMP reporter score was 0.461 in series [1] (pH 5.5); -0.287 in series [1] (pH 6); -0.323 in series [1] (pH 6, modulator: ogerin); -1.5 in series [1] (pH 6.5, modulator: ogerin). The surface expression score in series [2] was -1.01.
For the variant Y106P, the cAMP reporter score is -1.9 in series [1] (pH 5.5); -1.69 in series [1] (pH 6, modulator: ogerin); -0.353 in series [1] (pH 6.5, modulator: ogerin). Besides, the surface expression score in series [2] is -1.55.
Regarding Y106I, the cAMP reporter score in series [1] (pH 5.5) is -1.28; in series [1] (pH 6) it was -0.809; in series [1] (pH 6, modulator: ogerin), -1.51; in series [1] (pH 6.5, modulator: ogerin), -0.827. Further, the surface expression score in series [2] was -2.48.
Turning to Y106W, the cAMP reporter score in series [1] (pH 5.5) was -0.345; in series [1] (pH 6) it was -1.18; in series [1] (pH 6, modulator: ogerin), -2.3; in series [1] (pH 6.5, modulator: ogerin) it was -1.33. Further, the surface expression score in series [2] was -1.85.
In the same order, the values of Y106H are -0.478, -0.196, -0.653, -0.701 and -0.588.
Y106L: the cAMP reporter score in series [1] (pH 5.5) was -1.05; in series [1] (pH 6), -0.672; in series [1] (pH 6, modulator: ogerin), -1.45; in series [1] (pH 6.5, modulator: ogerin), -1.41. Also, the surface expression score in series [2] is -2.8.
As to Y106C, the cAMP reporter score in series [1] (pH 5.5) is -0.558; in series [1] (pH 6) it was -0.519; in series [1] (pH 6, modulator: ogerin), -0.814; in series [1] (pH 6.5, modulator: ogerin), -0.553. Moreover, the surface expression score in series [2] was -0.665.
Turning to Y106K, the cAMP reporter score in series [1] (pH 5.5) was -0.913; in series [1] (pH 6) it was -0.099; in series [1] (pH 6, modulator: ogerin), -1.36; in series [1] (pH 6.5, modulator: ogerin) it was -0.423. Moreover, in series [2], the surface expression score was -0.994.
